For part of its entries the source gives two or more results. This list holds those alone. There may be further records. Results that share an entry seem to repeat one measurement; one of them may be the mean. Marks such as (2×) give the number of equal values in this list.
Biological target: T1, JAK3: Recombinant human kinase domain (Homo sapiens, UniProt P52333)
T1 construct: JAK3: Recombinant human kinase domain from Millipore (Cat #14-629) or prepared; purchased Millipore 14-629
Test: Determination of IC50 of Janus Kinase (JAK) inhibition, radioactive end-point 33P-ATP assay, JAK3
Assay type: biochemical
Conditions: ATP 1.5 uM, peptide 50 uM, 20 minutes, read-out: JAK3-INHIB-DR/v1~NO ADDITIVE~Enzyme_Conc = 100

T1 sequence (P52333 822-1111 limits assumed): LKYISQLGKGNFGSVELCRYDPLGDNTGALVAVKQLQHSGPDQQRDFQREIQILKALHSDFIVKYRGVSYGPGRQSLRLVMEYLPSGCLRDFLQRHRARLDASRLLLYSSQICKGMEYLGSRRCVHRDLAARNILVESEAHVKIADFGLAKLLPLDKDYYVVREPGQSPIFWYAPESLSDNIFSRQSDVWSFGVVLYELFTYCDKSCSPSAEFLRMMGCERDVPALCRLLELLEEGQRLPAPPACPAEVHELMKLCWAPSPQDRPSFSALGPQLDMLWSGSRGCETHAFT

## COCC(COC)NC(=O)c1c[nH]c2ncc(-c3nn(C)c4cc(Cl)ccc34)nc12 [Example I-166, 2-(6-Chloro-1-methyl-1H-indazol-3-yl)-5H-pyrrolo[2,3-b]pyrazine-7-carboxylic acid (2-methoxy-1-methoxymethyl-ethyl)-amide]
  IC50: 12.6 nM, > 1 µM (2×), 12 nM [lines of one column]

— patent publication US8658646B2, “Pyrrolopyrazine kinase inhibitors” (Hoffmann-LaRoche Inc., priority 2011, dated 2014)
